The source of these data is the supplement of paper PMC10126150.

The test system of the series is ATP. Nature of the series: switch fluorescence ratio, 500 uM ATP over buffer (Cy3 cluster intensity, sum of 5 cycles each) (fold (ratio)); higher = stronger signal-on switching upon ATP binding; sequences stand for … in TCGTCGGCAGCGTCAGATGTGTATAAGAGACAGTTTTTTTTTTTTTTTTTTTTTTTTT…TC. To be noted: aptamer strand: ATP DNA aptamer (quencher-CACCTGGGGGAGTATTGCGGAGGAAGG + anchor), 100 nM annealed; ATP concentration: 500 uM; one replicate. Summed up: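 Five buffer/ATP imaging cycles were run on Cy3-labelled switching-strand clusters on a modified Illumina MiSeq flow-cell, with NaOH stripping and re-annealing between cycles. In each cycle, clusters annealed to 100 nM quencher-labelled ATP aptamer were imaged in selection buffer, then after 15 min with 500 uM ATP at 22 °C. Per cluster, the fluorescence ratio is summed target-cycle over summed buffer-cycle Cy3 intensity, averaged per switch-domain sequence. Only clusters within 100-1000 RFU were kept.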

Sequences with one replicate were seen in a single cluster, so their values are uncertain.
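Further: ATP exposure 15 min at 22 °C before imaging.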

In the case of CCCTGATTT, the switch fluorescence ratio came to 1.01.
In the case of TAAGTGCAGG it was 1.03; in that of AGAACACTCA, 1.15; in that of GCATGTCTGA, 1.03.
In the case of CGGGTTATGC it was 0.937.
TGATGAGCTG: the switch fluorescence ratio worked out at 1.07.
In the case of CCATCTCCAC it was 1.12.
For CATTTGGG the value was 0.984.
In the case of GGCTCAAACC it was 1.03; in that of ATGGTAGTTC, 1.02.
On to GCGATTTCCG, for which the switch fluorescence ratio was 1.04.
In the case of GATCTGACAG it was 1.01; in that of GATTGTGAGC, 1.03.
Consider ACGTTACCGG, for which the switch fluorescence ratio was 1.55.
In the case of ACTGTTTTC it was 1.
In the case of TTCAACCATT it was 1.04.
In the case of GCTACTAGTT it was 1.
GTGAGGCCTG: the switch fluorescence ratio amounted to 1.01.
For the sequence CCTGCTCCTC, the switch fluorescence ratio is 1.32.
In the case of CCATGTCCCG it was 0.972; in that of CGTGCCGTCA, 1.07.
In the case of GAGGGGCAAT it was 1.05.
In the case of CAGGTACACA, the switch fluorescence ratio was 1.07.
For GTTAAACGGT the value was 1.01; for CTCTAAGTTA, 0.98.
For GTGGTTTATG the value was 0.99; for CTTGGAAGTG, 0.998; for CCCGTTTTTC, 1.02.
For CATCATTGTA the value was 0.98; for CATGCCAGGA, 1.05.
For the sequence TGGAGGAGGT, the switch fluorescence ratio came out at 1.01.
For TCACTTATG the value was 0.981; for CACTGCACAG, 1.31; for CCCAATTGGC, 1.06.
For CCTTTCTATG the value was 1.13; for AAAAAGCCGT, 1.03.
For AAAGGCTGCA the value was 0.932; for CACCGTAGGG, 1.01; for GCTTCTTCGC, 1.09.
Take CAGCGTATT: the switch fluorescence ratio was determined as 1.
For TTGCAGGTGA the value was 1.7; for CAGTGAAGAT, 0.969.
For TCACCTGGTC the value was 1.09.
In the case of TGACCTCCCG it was 1.08; in that of CCCACGCTCC, 3.18.
Take TTGGCCTTGT: the switch fluorescence ratio turned out to be 0.997.
For GAGTTATACC the value was 0.996; for CGTAGAGGGA, 0.98.
For TCTAGTCCTT the value was 1.02.
In the case of TTGGGTCGT it was 0.963; in that of TTCGATGATG, 0.962; in that of CAGAGAGTGC, 0.999.
Turning to ATGCGGCCTT, the switch fluorescence ratio amounted to 0.978.
In the case of GAAAGGTGTG it was 0.991; in that of TGGGAGGAT, 1; in that of ACAATTAGTT, 0.988.
In the case of AATGGATCTT it was 0.93; in that of AGGCAGATCA, 1.01; in that of ATTCGAAGCT, 1.
In the case of GATAACAGTA it was 1.06; in that of TTGCTCCAGG, 1.84; in that of GAGCGGGTAT, 0.979.
Take ATTGCGGAAC: the switch fluorescence ratio was found to be 1.07.
In the case of TAAGCCTCGA, the switch fluorescence ratio was determined as 1.03.
In the case of GCCAACTGCA it was 1.03.
For the sequence AATCGTACTT, the switch fluorescence ratio was determined as 1.05.
For CGCCATCGG the value was 1.03; for GGGGAGAAAA, 0.986.
For AATGCTTCCC the value was 1.35; for AAGAAATATA, 0.984.
In the case of AGACAATCT it was 1.02; in that of ATCCATCGCC, 1.07; in that of CGAGTATTGT, 1.03.
On to CGCAGGCTTC, for which the switch fluorescence ratio came out at 1.07.
As for AGGGTCACTG, the switch fluorescence ratio came to 1.02.
Regarding GCAGATAACC, the switch fluorescence ratio worked out at 1.02.
In the case of TTGATAGGA it was 1.
On to TGGCGGCGTT, for which the switch fluorescence ratio amounted to 1.05.
For ATTTAGCGCA the value was 0.971.
